Laboratory results published in the supplement of paper PMC3334620.
The full ranking holds about 33,000 sequences; the median of “E-score (-0.5 to 0.5)” is about -0.013, and the highest 2% start at about 0.3. Some of the results follow.

molecular target: T1, Msn1 (UniProt P22148); assay: PBM E-score (8-mer binding enrichment) (E-score (-0.5 to 0.5)); higher = stronger / more preferred TF binding; most listed sequences are background and not binding sites; details: protein concentration: 200 nM; construct: GST-full length
T1 sequence: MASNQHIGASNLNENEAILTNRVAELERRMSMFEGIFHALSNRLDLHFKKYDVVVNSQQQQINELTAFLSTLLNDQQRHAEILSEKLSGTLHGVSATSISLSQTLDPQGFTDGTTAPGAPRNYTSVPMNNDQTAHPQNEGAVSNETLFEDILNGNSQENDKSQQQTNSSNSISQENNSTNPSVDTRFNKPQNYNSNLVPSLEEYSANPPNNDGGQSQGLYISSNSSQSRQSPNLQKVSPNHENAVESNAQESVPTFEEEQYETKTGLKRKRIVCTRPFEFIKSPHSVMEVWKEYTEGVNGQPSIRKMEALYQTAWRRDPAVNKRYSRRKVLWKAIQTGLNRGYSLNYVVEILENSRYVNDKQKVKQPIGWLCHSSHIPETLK
In short: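 Full-length yeast transcription factors or their DNA-binding domains, GST-tagged and expressed with PURExpress, were applied at about 100-200 nM to universal all-10-mer Agilent arrays. These arrays had been made double-stranded by primer extension on fresh or once-stripped slides. Detection used fluorescent anti-GST, normalisation used masliner, and E-scores for ungapped eight-base words pooled with reverse complements came from the Universal PBM Analysis Suite.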

| Sequence | PBM E-score |
| --- | --- |
| TGCGCCAA | -0.0871 |
| CCCCTTAC | -0.214 |
| AATTTACA | 0.00341 |
| AGTATACG | 0.0404 |
| ATAACATC | -0.0182 |
| CAATAGCA | -0.168 |
| ACTACGCC | -0.229 |
| GCTTACGA | -0.156 |
| GTAATAGA | -0.137 |
| ATTCTAAC | -0.11 |
| CGTCTCAA | 0.00785 |
| AAAGAAAA | 0.201 |
| CAGGCGAA | -0.0597 |
| AGCGGGGG | -0.382 |
| AATAGTAA | 0.144 |
| AAGTTGCC | -0.115 |
| ATGGCCCG | -0.052 |
| AAGGCTCA | 0.00716 |
| ACATCATG | 0.153 |
| CATTCGTA | -0.0427 |
| AGGGGTCA | -0.0619 |
| TACTCTAA | 0.00869 |
| GCTGACAC | 0.105 |
| AGAGCCCT | -0.142 |
| TGACGGAA | 0.0985 |

| Sequence | PBM E-score |
| --- | --- |
| CGAAGACA | 0.259 |
| AGGCACTG | 0.0208 |
| CCTGCAAG | -0.262 |
| CCACTGGC | 0.051 |
| GCAAATTA | -0.0115 |
| AACGCGCT | 0.0559 |
| GCGATAAA | 0.0531 |
| CGGCGAGC | 0.0882 |
| ACTGGGAG | -0.106 |
| GACTAGGA | 0.112 |
| AGTTACTA | -0.0184 |
| CGATCAAG | -0.0494 |
| GAGCAACA | -0.0705 |
| CTGGCCTA | -0.218 |
| CACGGCTA | 0.0276 |
| ACTAGCTA | -0.0388 |
| AGGGCTAA | -0.0295 |
| ACGAGAGC | -0.118 |
| CTATGACC | -0.0237 |
| TCGGACCA | 0.12 |
| GCGAGATA | 0.09 |
| AACTATCG | -0.109 |
| CGCTTCAA | 0.0409 |
| GCGCTTTA | 0.0318 |
| CCTTTCGA | 0.00331 |

| Sequence | PBM E-score |
| --- | --- |
| AGTTCTTC | 0.045 |
| ATCTTTTG | 0.0826 |
| ACTACACG | 0.00207 |
| GACTGCCC | -0.173 |
| GATGGAGC | -0.185 |
| AAGGCTAA | -0.0866 |
| ATGAATCG | 0.0497 |
| GAAAGCAC | -0.106 |
| AGCGGGAC | -0.0126 |
| GATTACGA | 0.106 |
| GCAGTGGA | 0.0771 |
| ACACTTAG | 0.0598 |
| GCGTCGTA | 0.163 |
| CCTGCAGA | -0.0096 |
| CACAATGC | -0.116 |
| AACCGCCC | -0.223 |
| ACATTCTG | 0.162 |
| CAAGAGTC | 0.00433 |
| CCCAGATC | -0.236 |
| GTTTGTAA | 0.126 |
| ATGGAAAC | -0.152 |
| CAGACAAA | 0.451 |
| CACTGGGG | -0.105 |
| GCATAACC | -0.0797 |
| ATACCCGG | -0.0671 |

| Sequence | PBM E-score |
| --- | --- |
| CGCTCCCA | -0.017 |
| CCTAACTA | 0.172 |
| CTACACAA | 0.0957 |
| GGCACCCA | -0.268 |
| ATAGCCGG | 0.116 |
| CCTCCATA | 0.0338 |
| AAAGCGTT | 0.00931 |
| CCCGTAGG | -0.267 |
| CGAGTTAG | 0.0955 |
| GACAGGGA | 0.0869 |
| CGACAGCG | 0.00293 |
| TACGAATA | 0.188 |
| AGTATCGA | 0.127 |
| ACACCCAA | -0.0114 |
| GGACACTA | 0.217 |
| AGGCATTG | -0.211 |
| CGCACTGA | 0.058 |
| ACAGGACA | 0.421 |
| GCTAAGGA | -0.102 |
| ACCCGCCG | 0.00546 |
| AGACTAGC | -0.163 |
| CTAGCGTA | -0.199 |
| AAGTTGCT | -0.138 |
| ACTTTTGC | 0.144 |
| GTACCTAC | 0.0568 |

| Sequence | PBM E-score |
| --- | --- |
| ACCTGTTA | -0.101 |
| CTCACCGA | -0.0331 |
| GGTGTTCA | -0.00074 |
| AGGTGACC | 0.02 |
| AGCAGCAT | -0.0944 |
| CGAGCTGA | 0.127 |
| GATGTATA | -0.11 |
| ACTACTCC | -0.106 |
| TCCTGGAA | -0.0415 |
| CCCACACC | -0.101 |
| CCAAGGGA | -0.0389 |
| CCGCGTAC | -0.0584 |
| AACTTCTG | 0.0608 |
| ACCGACGC | -0.203 |
| CCTTCACA | -0.0989 |
| CACGGCGA | 0.0227 |
| AATCGAGC | -0.125 |
| CTGACGGA | 0.0868 |
| ACACCAAG | -0.0187 |
| TATGGGGA | 0.123 |
| AAGGACGT | 0.32 |
| ACATGCCG | 0.169 |
| ATCATAGA | 0.055 |
| TAGCGCTA | -0.119 |
| ATCGGTAC | 0.0907 |

| Sequence | PBM E-score |
| --- | --- |
| CTGGCTTC | -0.281 |
| ACGAAAAC | 0.301 |
| CTATCGTC | -0.115 |
| ATCCCAAC | -0.00635 |
| CAAAACTG | 0.127 |
| AAGCGGCT | -0.0338 |
| AAAGTCGT | 0.223 |
| CTAGTAAA | 0.167 |
| ACAGGCGA | -0.0494 |
| CGACTGCC | -0.094 |
| ATTAAACG | 0.221 |
| GACCTTCA | -0.153 |
| ACAGCTCG | -0.137 |
| AGAATGCG | -0.133 |
| AGCAGCCG | -0.125 |
| ATCTCGCA | 0.233 |
| TCAGCCAA | -0.138 |
| AAGACTAA | 0.143 |
| AATGTGAG | -0.0249 |
| GTTTAAAA | 0.0898 |
| ATGTCACA | 0.363 |
| TGATGGAA | 0.0341 |
| CGCGTCAC | 0.132 |
| CTCTTGGC | -0.293 |
| CCTTTGAC | -0.139 |

| Sequence | PBM E-score |
| --- | --- |
| GAAGCTGC | 0.0141 |
| CCAACTTA | 0.0784 |
| ATTTCAGG | -0.0254 |
| GCCATTGA | 0.00063 |
| ATGTTGGC | -0.0626 |
| AAGTGACC | -0.126 |
| CGAAGGCA | -0.128 |
| AACAGGCA | 0.0606 |
| CTTACACA | -0.0523 |
| GTCACCCA | -0.051 |
| CGTTTAGA | 0.0804 |
| GAGCGCCA | -0.352 |
| ACTCCATA | -0.2 |
| CGTCGACC | 0.12 |
| ATAGCCGC | -0.0788 |
| ACGGCGCG | 0.141 |
| CACCGCAG | -0.209 |
| GTAGCAAC | -0.0334 |
| CACGTTGG | -0.0386 |
| AAGACCAG | -0.205 |
| AACTACGC | 0.0124 |
| GTCCACAC | 0.267 |
